Data taken from the supplement of paper PMC10369915.
The list shows a part of the results. Rule as the data show it: active = 3.2 or more and inactive = the rest. The signal is at background level for most entries.

biological target: SHP2 C-SH2 domain E139D; test: enrichment score (SH2-bound / input frequency) (ratio); bacterial display of known human phosphotyrosine sites (pTyr-Var adds point mutants) read by sequencing; higher = stronger binding; tyrosines were phosphorylated by kinases first; settings: peptide library: pTyr-Var
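Also: displayed peptides selected on beads carrying the immobilized SH2 domain, with library peptides lacking any tyrosine serving as negative controls.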

Enrichment score, inactive:
EEGENYQKGEQ [CHGB_Y173_R178Q] 0.48, EEGENYQKGER [CHGB_Y173] 0.432, CCNHPYLINGA [CHD7_Y1256] 1.4, EKKDIYKAGEQ [CFH_Y1008_V1007I] 0.456, CGTPTYLAPEV [CHEK2_Y390] 0.889, FQEKGYNKEPR [CHRND_Y38_L42P] 0.879, VSFDEYRFRSV [CFTR_Y515_YF] 0.801, LFHENYNAGTF [CFI_Y421_I416L_YF] 1.17, IFLENYNAGTF [CFI_Y421_H418L_YF] 0.797, CCNHPYRINGA [CHD7_Y1256_L1257R] 1.25, YAFQLYDLDRD [CHP2_Y123] 1.18, IQKKYYRAILE [CHD7_Y1218] 1.25, EEVKAYLDFRE [CHAC2_Y78] 0.813, AVLQPYIFVAT [CFTR_Y1014] 0.728, NIRKKYFRAIL [CHD7_Y1217_Q1214R_YF] 0.386, FAFQLYDLDRD [CHP2_Y123_YF] 1.94, IFLENYNAGTY [CFI_Y421_H418L] 1.16, ICGVSYDEYRY [CFTR_Y512_F508C] 0.902

biological target: SHP2 C-SH2 domain wild-type; test: as above; settings: peptide library: pTyr-Var

Enrichment score, inactive:
EEGENYQKGEQ [CHGB_Y173_R178Q] 0.576, EEGENYQKGER [CHGB_Y173] 0.457, CCNHPYLINGA [CHD7_Y1256] 1.23, EKKDIYKAGEQ [CFH_Y1008_V1007I] 0.427, CGTPTYLAPEV [CHEK2_Y390] 1.16, FQEKGYNKEPR [CHRND_Y38_L42P] 0.859, VSFDEYRFRSV [CFTR_Y515_YF] 0.663, LFHENYNAGTF [CFI_Y421_I416L_YF] 0.865, IFLENYNAGTF [CFI_Y421_H418L_YF] 0.864, CCNHPYRINGA [CHD7_Y1256_L1257R] 1.21, YAFQLYDLDRD [CHP2_Y123] 2.87, IQKKYYRAILE [CHD7_Y1218] 1.12, EEVKAYLDFRE [CHAC2_Y78] 0.844, AVLQPYIFVAT [CFTR_Y1014] 1.02, NIRKKYFRAIL [CHD7_Y1217_Q1214R_YF] 0.341, FAFQLYDLDRD [CHP2_Y123_YF] 1.51, IFLENYNAGTY [CFI_Y421_H418L] 1.09, ICGVSYDEYRY [CFTR_Y512_F508C] 1.12

biological target: SHP2 N-SH2 domain L43F; test: as above; settings: peptide library: pTyr-Var

Enrichment score, inactive:
EEGENYQKGEQ [CHGB_Y173_R178Q] 0.39, EEGENYQKGER [CHGB_Y173] 0.477, CCNHPYLINGA [CHD7_Y1256] 1.23, EKKDIYKAGEQ [CFH_Y1008_V1007I] 0.434, CGTPTYLAPEV [CHEK2_Y390] 0.771, FQEKGYNKEPR [CHRND_Y38_L42P] 0.859, VSFDEYRFRSV [CFTR_Y515_YF] 0.871, LFHENYNAGTF [CFI_Y421_I416L_YF] 0.966, IFLENYNAGTF [CFI_Y421_H418L_YF] 0.871, CCNHPYRINGA [CHD7_Y1256_L1257R] 1.17, YAFQLYDLDRD [CHP2_Y123] 1.38, IQKKYYRAILE [CHD7_Y1218] 1.48, EEVKAYLDFRE [CHAC2_Y78] 0.793, AVLQPYIFVAT [CFTR_Y1014] 0.735, NIRKKYFRAIL [CHD7_Y1217_Q1214R_YF] 0.249, FAFQLYDLDRD [CHP2_Y123_YF] 2.07, IFLENYNAGTY [CFI_Y421_H418L] 1.22, ICGVSYDEYRY [CFTR_Y512_F508C] 0.813

biological target: SHP2 N-SH2 domain T42A; test: as above; settings: peptide library: pTyr-Var

Enrichment score, inactive:
EEGENYQKGEQ [CHGB_Y173_R178Q] 0.521, EEGENYQKGER [CHGB_Y173] 0.393, CCNHPYLINGA [CHD7_Y1256] 1.01, EKKDIYKAGEQ [CFH_Y1008_V1007I] 0.646, CGTPTYLAPEV [CHEK2_Y390] 0.869, FQEKGYNKEPR [CHRND_Y38_L42P] 0.99, VSFDEYRFRSV [CFTR_Y515_YF] 0.553, LFHENYNAGTF [CFI_Y421_I416L_YF] 0.869, IFLENYNAGTF [CFI_Y421_H418L_YF] 0.848, CCNHPYRINGA [CHD7_Y1256_L1257R] 1.1, YAFQLYDLDRD [CHP2_Y123] 2.07, IQKKYYRAILE [CHD7_Y1218] 1.36, EEVKAYLDFRE [CHAC2_Y78] 0.778, AVLQPYIFVAT [CFTR_Y1014] 0.857, NIRKKYFRAIL [CHD7_Y1217_Q1214R_YF] 0.28, FAFQLYDLDRD [CHP2_Y123_YF] 1.84, IFLENYNAGTY [CFI_Y421_H418L] 0.995, ICGVSYDEYRY [CFTR_Y512_F508C] 0.924

biological target: SHP2 N-SH2 domain T52S; test: as above; settings: peptide library: pTyr-Var

Enrichment score, inactive:
EEGENYQKGEQ [CHGB_Y173_R178Q] 0.411, EEGENYQKGER [CHGB_Y173] 0.429, CCNHPYLINGA [CHD7_Y1256] 1.35, EKKDIYKAGEQ [CFH_Y1008_V1007I] 0.557, CGTPTYLAPEV [CHEK2_Y390] 0.825, FQEKGYNKEPR [CHRND_Y38_L42P] 0.692, VSFDEYRFRSV [CFTR_Y515_YF] 0.663, LFHENYNAGTF [CFI_Y421_I416L_YF] 0.893, IFLENYNAGTF [CFI_Y421_H418L_YF] 0.937, CCNHPYRINGA [CHD7_Y1256_L1257R] 1.36, YAFQLYDLDRD [CHP2_Y123] 1.67, IQKKYYRAILE [CHD7_Y1218] 1.19, EEVKAYLDFRE [CHAC2_Y78] 0.61, AVLQPYIFVAT [CFTR_Y1014] 0.873, NIRKKYFRAIL [CHD7_Y1217_Q1214R_YF] 0.253, FAFQLYDLDRD [CHP2_Y123_YF] 2.09, IFLENYNAGTY [CFI_Y421_H418L] 1.24, ICGVSYDEYRY [CFTR_Y512_F508C] 0.788

biological target: SHP2 N-SH2 domain wild-type; test: as above; settings: peptide library: pTyr-Var

Enrichment score, inactive:
EEGENYQKGEQ [CHGB_Y173_R178Q] 0.584, EEGENYQKGER [CHGB_Y173] 0.56, CCNHPYLINGA [CHD7_Y1256] 0.954, EKKDIYKAGEQ [CFH_Y1008_V1007I] 0.582, CGTPTYLAPEV [CHEK2_Y390] 1.11, FQEKGYNKEPR [CHRND_Y38_L42P] 0.902, VSFDEYRFRSV [CFTR_Y515_YF] 0.683, LFHENYNAGTF [CFI_Y421_I416L_YF] 0.8, IFLENYNAGTF [CFI_Y421_H418L_YF] 0.821, CCNHPYRINGA [CHD7_Y1256_L1257R] 1.33, YAFQLYDLDRD [CHP2_Y123] 1.02, IQKKYYRAILE [CHD7_Y1218] 1.48, EEVKAYLDFRE [CHAC2_Y78] 1.05, AVLQPYIFVAT [CFTR_Y1014] 1.01, NIRKKYFRAIL [CHD7_Y1217_Q1214R_YF] 0.267, FAFQLYDLDRD [CHP2_Y123_YF] 1.84, IFLENYNAGTY [CFI_Y421_H418L] 1.12, ICGVSYDEYRY [CFTR_Y512_F508C] 1.02
